Article PMC4336329 (PLoS ONE, 2015)
Among all 310,000 compounds or so, about 2,200 (0.71%) showed an effect of 50% or more. The effect is printed as a negative number. The list shows a part of the results.

What follows are molecules tested against human ether-à-go-go-related gene (hERG) potassium channel (human, UniProt Q12809) (assay: primary screen, population patch clamp on CHO cells stably expressing hERG).
human ether-à-go-go-related gene (hERG) potassium channel, sequence (Q12809 whole entry, looked up): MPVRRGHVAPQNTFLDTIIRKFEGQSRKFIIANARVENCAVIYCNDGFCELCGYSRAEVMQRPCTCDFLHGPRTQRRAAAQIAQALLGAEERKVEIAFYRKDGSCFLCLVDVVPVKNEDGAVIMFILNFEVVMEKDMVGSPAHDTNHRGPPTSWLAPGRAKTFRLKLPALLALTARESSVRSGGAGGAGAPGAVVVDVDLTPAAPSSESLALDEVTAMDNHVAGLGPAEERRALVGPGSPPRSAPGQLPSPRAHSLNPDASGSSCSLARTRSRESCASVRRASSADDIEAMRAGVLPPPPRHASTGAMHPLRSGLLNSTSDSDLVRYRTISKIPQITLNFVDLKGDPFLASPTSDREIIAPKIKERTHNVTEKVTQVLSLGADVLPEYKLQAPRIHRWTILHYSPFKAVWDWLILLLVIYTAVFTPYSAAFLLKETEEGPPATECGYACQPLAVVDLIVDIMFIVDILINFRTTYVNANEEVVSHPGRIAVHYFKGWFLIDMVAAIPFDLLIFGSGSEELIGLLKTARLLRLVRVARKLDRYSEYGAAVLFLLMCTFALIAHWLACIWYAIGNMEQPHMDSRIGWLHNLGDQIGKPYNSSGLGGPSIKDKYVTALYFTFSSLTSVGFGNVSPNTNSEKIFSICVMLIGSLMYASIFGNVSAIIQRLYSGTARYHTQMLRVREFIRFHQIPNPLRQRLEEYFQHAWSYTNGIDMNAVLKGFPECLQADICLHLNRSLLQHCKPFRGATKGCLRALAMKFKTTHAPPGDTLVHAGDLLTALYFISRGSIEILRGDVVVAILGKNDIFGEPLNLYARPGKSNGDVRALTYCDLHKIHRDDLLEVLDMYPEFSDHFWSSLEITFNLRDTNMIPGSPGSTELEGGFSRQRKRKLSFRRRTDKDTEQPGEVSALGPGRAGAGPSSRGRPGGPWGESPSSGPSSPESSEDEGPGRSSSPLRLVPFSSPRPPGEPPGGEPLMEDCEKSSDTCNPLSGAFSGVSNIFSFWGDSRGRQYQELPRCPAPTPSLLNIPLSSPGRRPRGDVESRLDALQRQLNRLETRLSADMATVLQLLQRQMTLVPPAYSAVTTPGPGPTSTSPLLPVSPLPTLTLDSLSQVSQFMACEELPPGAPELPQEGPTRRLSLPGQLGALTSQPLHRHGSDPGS

Row | Compound | hERG current change (%, negative = inhibition) at 1uM
1 | CC(=O)Nc1ccc(/C=N/NC(=O)c2cc3cc(C)ccc3nc2C)cc1 | 5.12%
2 | CCN(CC)S(=O)(=O)c1ccc(N2CCCC2)c(C(=O)Nc2ccc(OC)c(Cl)c2)c1 | 11.3%
3 | CCOC(=O)c1sc(C)c2c1NC1(CCCCCC1)NC2=O | 5.81%
4 | NC(=O)CN1CCCC1c1ccc2c(c1)OCCO2 (stereo not drawn) | 7.17%
5 | O=C(Nc1ccc(F)cc1)c1cccc(C(=O)Nc2ccc(F)cc2)c1 | -4.92%
6 | CC(C)(C)c1ccc(/C=N/NC(=O)c2ccccn2)cc1 | 3.78%
7 | COc1ccc(C)c2sc(NC(=O)c3cccc(N4C(=O)CCC4=O)c3)nc12 | -3.29%
8 | Cn1c(=O)nc2n(Cc3ccccc3)c3cccc(Cl)c3cc-2c1=O | 7.14%
9 | Cc1nnc(SCSc2nnc(C)s2)s1 | 11.1%
10 | CN(C)c1ccc(/C=N/OC(=O)Nc2ccccc2)cc1 | 11.8%
11 | O=C(O)CCc1ccc(-c2cccs2)n1CCc1ccccc1 | 10.7%
12 | CN(C)c1ccc(C(=O)OCC(=O)NC2CCCCCC2)cc1 | 0.405%
13 | Cc1nc2ccc(NC(=O)COc3cccc(F)c3)cc2s1 | 24.2%
14 | Cc1ccc(CSC2=NCCN2C(=O)c2ccc(S(=O)(=O)N(C)C)cc2)cc1 | 5.25%
15 | C#CCNC(=O)C1=C[C@H](C2CC2)C[C@H](OCCCCO)O1 | -1.18%
16 | COc1ccc(N2CCN(C(C)C(=O)Nc3nnc(C)s3)CC2)cc1.Cl (stereo not drawn) | 16.4%
17 | CC(=O)NC(N(C#N)c1nc(Cl)nc(N(C)C)n1)C(Cl)(Cl)Cl (stereo not drawn) | 12.7%
18 | O=C(COc1ccc(Cl)cc1)Nc1cnn(Cc2c(Cl)cccc2Cl)c1 | 16.6%
19 | COc1ccc(CN2CCN(C(=O)c3cccc4ccccc34)CC2)c(OC)c1OC.O=C(O)C(=O)O | 17.6%
20 | COc1ccc(C(=O)NC2CCN(CC(=O)Nc3cccc(OC)c3)CC2)cc1 | -1.73%
21 | COc1cccc(/C=N/NC(=O)CNC(=O)c2ccc3c(c2)OCCO3)c1O | 7.07%
22 | COc1ccccc1NC(=S)N1CCC(NC(=O)c2ccco2)CC1 | 4.32%
23 | Cc1ccc(OC/C(=N\O)C(C)(C)C)c([N+](=O)[O-])c1 | 13.1%

Row | Compound | hERG current change (%, negative = inhibition) at 1uM
24 | O=C(Nc1ccc(Cl)cc1)c1ccc(-c2ccccn2)s1 | 5.06%
25 | NC(=O)NC(CC(=O)Nc1cccnc1)c1cccc(Br)c1 (stereo not drawn) | 12.3%
26 | CCCCCCn1c(=O)c(Cc2ccccc2)c(O)c2ccccc21 | 8.47%
27 | Cc1ccc(OCc2nc(-c3ccccn3)n[nH]2)cc1 | 1.54%
28 | Cc1ccc(CSCc2nnc(SCC(=O)N3CCN(c4ccccc4)CC3)n2C)cc1 | -22.4%
29 | CCn1c2ccccc2c2cc(NC(=S)N3CCOCC3)ccc21 | 7.76%
30 | O=c1cc(-c2ccc([N+](=O)[O-])cc2)nc2cc(-c3ccc(F)cc3)[nH]n12 | 5.3%
31 | COc1ccc(-c2nc(SCC(=O)N3CCOCC3)n[nH]2)cc1 | -2.31%
32 | O=C(Nc1ccc(Br)cc1)c1csc(-c2ccncc2)n1 | 7.93%
33 | COc1ccccc1C1/C(=C(\O)c2ccc3c(c2)OCCO3)C(=O)C(=O)N1Cc1cccnc1 (stereo not drawn) | 17.8%
34 | CCOc1ccc(CNCc2cccnc2)cc1 | -5.57%
35 | CC(C)CN(CCCNC(=O)CN1C(=O)CSc2ccc(S(=O)(=O)N3CCOCC3)cc21)CC(C)C | 5.83%
36 | CCCCN(C)CCCNC(=O)c1cc(-c2cccnc2)nc2ccccc12 | -20.2%
37 | CC(C)C(NS(=O)(=O)c1ccc2c(c1)oc(=O)n2C)C(=O)N1CCN(c2ccccc2F)CC1 (stereo not drawn) | 6.08%
38 | CCOC(=O)C(Cc1ccccc1)NC(=O)CCC(=O)c1ccc(OC)cc1 (stereo not drawn) | 10.7%
39 | CC(C)c1ccc(-c2nn(-c3ccccc3)cc2C(=O)NCC2CCCO2)cc1 (stereo not drawn) | 11.7%
40 | CC(=O)NC(C)(CC(=O)c1ccccc1)c1ccccc1 (stereo not drawn) | 12.9%
41 | Cc1ccc(C2NC(=O)NC(O)(C(F)(F)F)C2C(=O)c2ccccc2)o1 (stereo not drawn) | 3.68%
42 | Cn1nc(-c2ccccc2)c2ncc(C(F)(F)F)cc21 | -5.35%
43 | CC(=O)/C(=N/Nc1ccc([N+](=O)[O-])cc1)N1CCCc2ccccc21 | 13.3%
44 | COc1ccc(S(=O)(=O)Nc2ccc3c(c2)OCO3)cc1Cl | -1.66%
45 | O=C(Cc1ccc(Br)cc1)N1CCc2ccccc2C1 | 14.8%
